From the supplement of paper PMC10126150
Values marked as one replicate rest on one cluster of the flow cell; about a third of the high ones do not repeat.

Each sequence was assayed on ATP (assay: switch fluorescence ratio, 500 uM ATP over buffer (Cy3 cluster intensity, sum of 5 cycles each) (fold (ratio)); higher = stronger signal-on switching upon ATP binding; sequences stand for … in TCGTCGGCAGCGTCAGATGTGTATAAGAGACAGTTTTTTTTTTTTTTTTTTTTTTTTT…TC). Conditions: aptamer strand: ATP DNA aptamer (quencher-CACCTGGGGGAGTATTGCGGAGGAAGG + anchor), 100 nM annealed; ATP concentration: 500 uM; one replicate.
Procedure, shortened: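 Five buffer/ATP imaging cycles were run on Cy3-labelled switching-strand clusters on a modified Illumina MiSeq flow-cell, with NaOH stripping and re-annealing between cycles. In each cycle, clusters annealed to 100 nM quencher-labelled ATP aptamer were imaged in selection buffer, then after 15 min with 500 uM ATP at 22 °C. Per cluster, the fluorescence ratio is summed target-cycle over summed buffer-cycle Cy3 intensity, averaged per switch-domain sequence. Only clusters within 100-1000 RFU were kept.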
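Further: ATP exposure 15 min at 22 °C before imaging.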

Sequence | switch fluorescence ratio
GCCAGGGGCG | 0.992
GCCAGGTATG | 1.12
GCCAGTAAAC | 1.05
GCCAGTCGGG | 0.993
GCCAGTGGAG | 0.995
GCCAGTTAAG | 0.98
GCCATATCTT | 1.09
GCCATCCCAA | 1.53
GCCATCGCGC | 1.06
GCCATTAGAT | 0.97
GCCATTCAGA | 1.02
GCCATTGGGT | 0.972
GCCATTTA | 1.04
GCCATTTGTC | 1.02
GCCCAAAGGG | 0.998
GCCCAGACGA | 1.14
GCCCATAAAA | 1.04
GCCCATAGTA | 1.02
GCCCATCTT | 0.956
GCCCATGAAC | 0.995
GCCCATGCTC | 1.21
GCCCCAGTTT | 1.08
GCCCCCCCCC | 1.09
GCCCCCCTTC | 1.01
GCCCCCTAGG | 2.66

Sequence | switch fluorescence ratio
GCCCCCTTTT | 1
GCCCCTTGAC | 1.03
GCCCGAAACT | 0.996
GCCCGGGGCG | 0.949
GCCCGGTCCA | 1
GCCCTAAGTT | 0.984
GCCCTGAATT | 0.961
GCCCTTACTA | 1.11
GCCCTTCTGA | 0.95
GCCGACGTGC | 1.01
GCCGAGGGAT | 1.02
GCCGCATA | 1.55
GCCGCCTTGC | 1.09
GCCGCGACG | 1.04
GCCGGAATAA | 2.56
GCCGGGGTAC | 1.16
GCCGGTAATA | 1.02
GCCGGTCATG | 0.991
GCCGTCAAGA | 1.03
GCCGTCGAGG | 1.02
GCCGTGAAAA | 1.01
GCCGTGGCTT | 0.972
GCCGTTCTCG | 1
GCCGTTTGTC | 1.03
GCCTAACGGG | 0.99

Sequence | switch fluorescence ratio
GCCTAAGTGG | 0.979
GCCTAATGGA | 1.01
GCCTACATAA | 1.05
GCCTAGCAAA | 0.968
GCCTAGGATG | 0.998
GCCTAGTTGG | 0.995
GCCTATTTAT | 0.999
GCCTCACGGG | 1.01
GCCTCAGCTA | 1.6
GCCTCATGTA | 1.02
GCCTCATTGC | 1.11
GCCTCGGCAT | 1.16
GCCTCTAGCG | 1.08
GCCTCTGGGA | 1.04
GCCTCTTGAA | 1.02
GCCTCTTGCC | 0.977
GCCTGAACGT | 0.981
GCCTGAAGTT | 1.01
GCCTGATAAT | 0.987
GCCTGCAATT | 1.1
GCCTGCGTTT | 0.97
GCCTGGTACA | 1.02
GCCTGGTCAC | 1.03
GCCTGTTACT | 1.02
GCCTTCGCGT | 1.45

Sequence | switch fluorescence ratio
GCCTTCTGAC | 1.91
GCCTTGGTG | 1.33
GCCTTGTAGG | 1.03
GCCTTTACAC | 1.02
GCCTTTACGT | 1.03
GCCTTTCAAA | 0.952
GCCTTTGAGA | 0.99
GCGAAAAGTA | 1
GCGAACGCGT | 0.992
GCGAAGTTAT | 0.987
GCGACATGTG | 1
GCGACGACAG | 1.03
GCGACGCATT | 4.3
GCGACGCTA | 2.98
GCGACGTCGA | 0.991
GCGACTGTTC | 1.02
GCGAGAGCGC | 0.944
GCGAGCATAC | 3.13
GCGAGCGTG | 0.985
GCGAGGTTCG | 0.974
GCGAGTTTA | 1.01
GCGATAAGCA | 1.08
GCGATACAGC | 1.09
GCGATACCAC | 1.93
GCGATACGGT | 3.08
